Some of the results follow.
system: PfHDP1 homeodomain (GST-tagged); assay: gcPBM binding intensity (ln(normalized median fluorescence intensity)); higher = stronger DNA binding
Outline: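 An Agilent 4 × 180k array carrying primer-extended double-stranded 36-bp intergenic genomic probes and negative controls received GST-tagged P. falciparum DNA-binding domains expressed in E. coli, about 25 μg on average, for 1 h. The binding buffer contained 1× PBS, 1% milk, 0.2 mg/ml BSA, 0.5% salmon testes DNA and 0.03% Triton X-100. Binding intensity is the top Masliner-normalised natural-log median intensity across replicate spots of either probe orientation, read after Alexa488 anti-GST antibody staining and a 488 nm scan.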

Compared with “ATATTAAGAATATATACACACATAAGTATTGTATAT [CACACA_site6110]”, “ATAAAATAAAATAAATGTACACGAAAAAAAATATTT [XGTACX_site3747]” is higher in “gcPBM binding intensity (ln)” value: 6.25 for the first, 7.15 for the second.

First: TATTCGTGCAATAGTAGTACACTTATAAATTATTCT [XGTACX_site4899]
Second: AAGGAGATAATTTATTGTACATATAATAAATGAACA [XGTACX_site6252]
The “gcPBM binding intensity (ln)” value of the first is higher: 9.93 for the first, 6.12 for the second.

Compared with “TCTTACAAAAAAAAAAAAAAATAAAATAAAATATAT [CACACA_negctrl_site1575]”, “TTAATATTATGTTAAAGTACTTTATATATATATAAT [XGTACX_site2646]” is higher in “gcPBM binding intensity (ln)” value: 6.11 for the first, 6.54 for the second.

First: TTCATTTACCCTTATTAACACACAAAATATAATACG [CACACA_site8821]
Second: TGTATATTATAAGATAGTACATATATATAATATATA [XGTACX_site1297]
The “gcPBM binding intensity (ln)” value of the first is higher: 6.93 for the first, 6.39 for the second.

Going from “ATCTTATATATACGTTGTACTACAGGATATGTCATA [XGTACX_site5734]” to “ATAAATATCATATATATACACACGTAATACATAATA [CACACA_site4001]”, the “gcPBM binding intensity (ln)” value falls from 6.63 to 6.55.

Compared with “TAATTACAAAAACATACACACAAAAAAAAAAAAAAA [CACACA_site3782]”, “AGCAAATACAAACACACACACACATATACATATATA [CACACA_site3497]” is higher in “gcPBM binding intensity (ln)” value: 6.22 for the first, 6.96 for the second.

Going from “ACATACATATATATACGTACATATATATTTATATAT [XGTACX_site5799]” to “ATTCTAAATATCAGTGCACACATTTCTACGCAAAGT [CACACA_site474]”, the “gcPBM binding intensity (ln)” value rises from 6.84 to 9.78.

Going from “GTTGGTAGATTTATTTGTACATATGTATCATATTAT [XGTACX_site7135]” to “AAAAATTTATTTTGTTTTTTAAGATTTTTTTTTTTT [CACACA_negctrl_site1210]”, the “gcPBM binding intensity (ln)” value falls from 6.82 to 5.85.

Going from “TATATTATATATTGGGGTACATATATATAAATATAA [XGTACX_site2296]” to “TATCAATATTAAAAAGTGCAAAATAAAATATAAAAT [GTGCAC_site9486]”, the “gcPBM binding intensity (ln)” value rises from 6.62 to 8.47.

First: TATGTTATATTATAAGGATAAATTTTGATTATATAA [TGCATGCA_negctrl_site600]
Second: AGAATAAAAAGGAACACACACACACCCATATATATA [CACACA_site3590]
The “gcPBM binding intensity (ln)” value of the first is lower: 6.01 for the first, 6.94 for the second.

First: ATGTACATTTTTTTCACACATACATTAATTTATGAG [CACACA_site5801]
Second: TATATTTACATTGTAACACACATGAAATATTTATAT [CACACA_site6178]
The “gcPBM binding intensity (ln)” value of the first is higher: 6.82 for the first, 6.41 for the second.

Going from “TAGACTAATCCCAAAAGTACAGAAAAATTATATTAT [XGTACX_site8663]” to “AAAATAAATAGATAAGCACACAAGCATATAGACATA [CACACA_site7958]”, the “gcPBM binding intensity (ln)” value rises from 6.37 to 6.53.

Going from “TAATTTCTTATGTATTGTACATATAATATATGATAT [XGTACX_site4898]” to “AATATATTTATGCTCATGCACTTTTTTTTTTTTTTT [GTGCAC_site9654]”, the “gcPBM binding intensity (ln)” value rises from 6.49 to 10.

Going from “TTTATTTATTATTAAAGTACTAAATTACATTATTAT [XGTACX_site6624]” to “TATTTAATTACATGAACACACATTAGATATTTTTAA [CACACA_site7405]”, the “gcPBM binding intensity (ln)” value rises from 5.91 to 6.33.

First: TTATTTCAAATTAATTTACACACTTCATACTAAAAG [CACACA_site9039]
Second: CATTATTTACCGCCGTGTACGTAATGAGAAATTAAA [XGTACX_site4662]
The “gcPBM binding intensity (ln)” value of the first is higher: 6.82 for the first, 6.34 for the second.

Going from “TAATAAAAAAAGTGCACACACATAATATTTATATAT [CACACA_site7548]” to “GAAAACAAATATGTAGCACACATTCACATAATATAT [CACACA_site8731]”, the “gcPBM binding intensity (ln)” value falls from 8.75 to 6.52.

First: TTATGTTGTAAATGCACACATACAAATACAGATACA [CACACA_site4876]
Second: ATTATAATGGTAAAGTGTACAAATTTTTATTACACC [XGTACX_site5274]
The “gcPBM binding intensity (ln)” value of the first is higher: 10.1 for the first, 6.5 for the second.

Compared with “ATAAATATAAAAATTTGTACATATATAGGTATAGGT [XGTACX_site1735]”, “ACATACAAGAATTAAACACACACAAAATATAAATTC [CACACA_site8985]” is lower in “gcPBM binding intensity (ln)” value: 7.06 for the first, 6.8 for the second.

Going from “TCTTGTATATACAGTAGTACTAAAAATTATTAAATA [XGTACX_site7896]” to “AATCAAAATTAATTAACACACAATTTTAATATTCTT [CACACA_site2063]”, the “gcPBM binding intensity (ln)” value falls from 6.5 to 6.14.

Compared with “ATTGTTTATATTGATTGTACTCATTTTTTTTTTATT [XGTACX_site1946]”, “TCCTGTGATTATATAACACACATTATTGCTTATAAG [CACACA_site1518]” is lower in “gcPBM binding intensity (ln)” value: 6.92 for the first, 6.83 for the second.

First: ATATATTATATATATTACAACTTAAGAATATACATA [TGCATGCA_negctrl_site371]
Second: ATAGTAAACGAAATAAAAAGATTAGCATAATATCCT [CACACA_negctrl_site1730]
The “gcPBM binding intensity (ln)” value of the first is lower: 6.26 for the first, 6.46 for the second.

Going from “ATATATTGAAAAAAATGTACGTATTTTTTTATGTTA [XGTACX_site4654]” to “ATTATATATATATATACACACACACCCTAAAAATAT [CACACA_site8463]”, the “gcPBM binding intensity (ln)” value rises from 6.39 to 7.22.

Going from “ACATGTTTTATGTGCACACAAAGTTGTTATGAGGTT [CACACA_site4031]” to “ATATAATATTTCATGTGGACACATTTTATGATTGTA [XGTACX_site8770]”, the “gcPBM binding intensity (ln)” value falls from 10.7 to 6.77.

Going from “ACACATATATATTATTATTATATAATATATATATAT [CACACA_negctrl_site1545]” to “AATAAATATATTACATATATGTGTAGTATTTTTTTA [TGCATGCA_negctrl_site268]”, the “gcPBM binding intensity (ln)” value falls from 8.32 to 6.31.

First: TAAGCTTGTAACAGTTTACACACTAATATTTATAAA [CACACA_site3907]
Second: TTATTAAATTTTTTTTGTACTTATATATATATATAT [XGTACX_site2443]
The “gcPBM binding intensity (ln)” value of the first is lower: 6.39 for the first, 9.03 for the second.

Compared with “TATGAATGTATATGTTGTACATATAAATATTTATAT [XGTACX_site1146]”, “ATTATTATATAGTGTGCATGCAATATTAATAAAACC [TGCATGCA_site245]” is higher in “gcPBM binding intensity (ln)” value: 6.5 for the first, 9.14 for the second.

Compared with “CAAAAAAAAAAAAAAACACACATTAAATTAGAAAGA [CACACA_site7271]”, “ATATACATTTAAATGTGTACATAATAAAATAAAAAA [XGTACX_site8170]” is higher in “gcPBM binding intensity (ln)” value: 6.12 for the first, 7.18 for the second.

Going from “AATATTTATATTTAGTGTACAGAAATAAAAAAAAAA [XGTACX_site6066]” to “GCTAATTTATTTTGCAGTACATATATAATAATATAT [XGTACX_site478]”, the “gcPBM binding intensity (ln)” value falls from 6.44 to 6.29.

Source: the supplement of paper PMC11417369
